Experimental data from the supplement of paper PMC3334620.
Over roughly 33,000 sequences, “E-score (-0.5 to 0.5)” has its median near -0.01; the highest 2% begin near 0.26. Some of the results follow.

molecular target: Ste12 (UniProt P13574); test: PBM E-score (8-mer binding enrichment) (E-score (-0.5 to 0.5)); higher = stronger / more preferred TF binding; most listed sequences are background and not binding sites; details: protein concentration: 200 nM; construct: GST-DNA-binding domain
Experimental: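 Universal 'all 10-mer' protein binding microarrays (Agilent AMADID 015681) probed with GST-tagged S. cerevisiae TFs (full-length or DBD) made by in vitro transcription/translation (PURExpress), about 100-200 nM. Bound TF was detected with fluorescent anti-GST. Each ungapped 8-mer (which stands for itself and its reverse complement) is scored by the PBM enrichment score (E-score), a modified Wilcoxon-Mann-Whitney statistic from -0.5 to +0.5, computed with the Universal PBM Analysis Suite. Scale: above 0.35 generally sequence-specific binding.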

First: ATCCGAGA
Second: CACGACCA
The “PBM E-score” value of the first is higher: 0.0742 for the first, -0.178 for the second.

First: CTACCTGC
Second: GGCGGGGA
The “PBM E-score” value of the first is lower: 0.00011 for the first, 0.407 for the second.

Going from CCGATCTA to ACAGTGGT, the “PBM E-score” value falls from -0.0821 to -0.153.

First: GGCCTAAA
Second: ACAGACAG
The “PBM E-score” value of the first is lower: -0.0441 for the first, 0.165 for the second.

Compared with ACCAGTGG, ACTGTCGA is higher in “PBM E-score” value: -0.096 for the first, -0.0928 for the second.

Compared with GACGTCGA, ATCCTTTC is lower in “PBM E-score” value: 0.0215 for the first, -0.0183 for the second.

Going from AGTAGCGG to GAATGCCA, the “PBM E-score” value rises from -0.123 to -0.041.

Compared with CGAAACGC, AGTTGCTC is lower in “PBM E-score” value: 0.248 for the first, -0.232 for the second.

First: CGGTTACC
Second: GCGTCAAA
The “PBM E-score” value of the first is lower: -0.00816 for the first, 0.203 for the second.

Going from ACACGCGT to AAAACTTT, the “PBM E-score” value rises from 0.118 to 0.249.

Going from AACGGCCA to CACTGGTC, the “PBM E-score” value falls from -0.0659 to -0.186.

Going from AAATGACC to GCAACGCC, the “PBM E-score” value falls from 0.0477 to -0.0303.

Compared with ATATTAAG, CCTTGGAC is lower in “PBM E-score” value: 0.109 for the first, -0.0997 for the second.

First: CTTAGTGC
Second: GGGGACAC
The “PBM E-score” value of the first is higher: -0.101 for the first, -0.247 for the second.

First: AGCAAGCG
Second: GAAGGCAC
The “PBM E-score” value of the first is higher: 0.0225 for the first, -0.0106 for the second.

Going from GGCAGCCC to CCATGTCA, the “PBM E-score” value rises from -0.142 to -0.129.

Compared with GTATACAC, CCTGAACC is higher in “PBM E-score” value: -0.116 for the first, -0.0988 for the second.

Compared with AGCCGGAG, AGGATCGA is lower in “PBM E-score” value: 0.15 for the first, -0.062 for the second.

Compared with ACAGGCAT, CTTGGAAA is higher in “PBM E-score” value: -0.115 for the first, 0.18 for the second.

First: CCCGCTTC
Second: GTTAAAAA
The “PBM E-score” value of the first is lower: -0.0169 for the first, 0.291 for the second.

First: ATCAATTC
Second: ACCAGCCT
The “PBM E-score” value of the first is higher: 0.0349 for the first, -0.0675 for the second.

First: GCTTGTCC
Second: CCAGCGAG
The “PBM E-score” value of the first is lower: -0.223 for the first, 0.0375 for the second.

Going from AAGCCTAC to AGGAGGAT, the “PBM E-score” value rises from -0.165 to -0.0278.

Going from CACCGGGC to GGGGGTGA, the “PBM E-score” value falls from -0.084 to -0.159.

First: AACCCACT
Second: GTGTCCGA
The “PBM E-score” value of the first is higher: 0.0618 for the first, -0.0926 for the second.

First: AAGACCTT
Second: ATTCCGTC
The “PBM E-score” value of the first is higher: 0.0345 for the first, -0.0186 for the second.

Going from TGTCCAAA to GTTGCGCA, the “PBM E-score” value falls from 0.135 to -0.22.

First: TCTTGCAA
Second: ATATTTTA
The “PBM E-score” value of the first is lower: 0.224 for the first, 0.235 for the second.

Going from CGAGTATA to ACATATGC, the “PBM E-score” value falls from 0.12 to -0.151.

Going from CGCTAACA to CGAAATCC, the “PBM E-score” value rises from 0.00748 to 0.132.

Going from TGGAGTAA to CCCAGGGA, the “PBM E-score” value falls from 0.144 to -0.184.

First: AACAGCCT
Second: ATCCTGAC
The “PBM E-score” value of the first is higher: 0.00024 for the first, -0.0029 for the second.

First: AGCACTGA
Second: ACGTTATC
The “PBM E-score” value of the first is higher: 0.0589 for the first, -0.111 for the second.

Going from GCCACCGA to AGACCGAC, the “PBM E-score” value rises from -0.181 to 0.126.

First: ACTTGCGA
Second: AAGTATAT
The “PBM E-score” value of the first is lower: -0.0121 for the first, 0.146 for the second.

Going from ACAAGCCC to CCGGACCA, the “PBM E-score” value rises from -0.165 to -0.0561.

Compared with AGCTTCCG, CCATGTCG is lower in “PBM E-score” value: -0.0505 for the first, -0.0907 for the second.

Going from CGAATTAA to AAACGTGC, the “PBM E-score” value falls from 0.23 to 0.034.

Going from ATGGCGTC to AGTTTATA, the “PBM E-score” value rises from -0.0126 to 0.218.

Compared with CCCATAAC, ACTGCGCA is higher in “PBM E-score” value: -0.0172 for the first, 0.0963 for the second.

Going from AATTACTG to ACCCCATC, the “PBM E-score” value rises from 0.0213 to 0.1.

Compared with ACAGTTGA, CATGGACC is higher in “PBM E-score” value: -0.0793 for the first, -0.0637 for the second.

Compared with AGGTAAAG, ATCAGTAG is lower in “PBM E-score” value: 0.206 for the first, 0.0301 for the second.

Going from ATCCGACC to GTTTAAAC, the “PBM E-score” value rises from -0.0493 to 0.214.

Going from ACAGGACG to GTAAGGAC, the “PBM E-score” value rises from -0.0545 to -0.0274.

Compared with GTAACGGA, AAGAGCTT is lower in “PBM E-score” value: 0.143 for the first, -0.0673 for the second.

Going from AGGTCTGC to ATAGAAAC, the “PBM E-score” value rises from -0.057 to 0.189.

Going from AACGTATC to CCGGTACC, the “PBM E-score” value falls from -0.0234 to -0.188.

Going from AACTGGAG to CTTACTCA, the “PBM E-score” value rises from -0.0915 to 0.0446.

Going from AGCTCAAT to AGTAGAGC, the “PBM E-score” value falls from -0.103 to -0.222.

Compared with GTGCGGTA, CCAGCAGG is lower in “PBM E-score” value: 0.0253 for the first, -0.107 for the second.

Compared with ACAGGAGC, AACCTCTA is higher in “PBM E-score” value: -0.14 for the first, 0.0864 for the second.

First: CTGTTTTC
Second: AGGTTGAG
The “PBM E-score” value of the first is higher: 0.0946 for the first, -0.113 for the second.

First: TGTCCGAA
Second: ATAATGAC
The “PBM E-score” value of the first is higher: 0.0419 for the first, -0.141 for the second.

Compared with CTGCGCCA, AACTTCGC is lower in “PBM E-score” value: 0.0695 for the first, -0.0676 for the second.

Going from TATGACCA to CGTGTAAG, the “PBM E-score” value falls from 0.00859 to -0.0021.

Compared with CCCAGGAC, GATTCCAA is higher in “PBM E-score” value: -0.0934 for the first, 0.105 for the second.

Compared with GCGTGCCA, ATACTATC is higher in “PBM E-score” value: -0.167 for the first, -0.00574 for the second.

First: CCTCCGTC
Second: GAAGTGTA
The “PBM E-score” value of the first is lower: -0.144 for the first, -0.0683 for the second.

Going from AGTAGACG to ACGCTATC, the “PBM E-score” value rises from -0.0195 to 0.0237.

Going from AATACTAC to ACATGTAC, the “PBM E-score” value falls from 0.155 to 0.0233.

First: CGCATTTC
Second: CTCTGACC
The “PBM E-score” value of the first is higher: 0.191 for the first, -0.142 for the second.

Going from CTTCTGTC to ACGGTCAT, the “PBM E-score” value rises from -0.0575 to 0.0396.

Going from CGGGAAAG to CATCGCTA, the “PBM E-score” value rises from -0.0256 to 0.0271.

Going from TGTAAACA to CCGGAAAG, the “PBM E-score” value falls from 0.087 to 0.0177.

First: ATAACGCA
Second: GTAGGTAA
The “PBM E-score” value of the first is higher: 0.0717 for the first, -0.0385 for the second.

Compared with TAACCACA, AAACTAAA is higher in “PBM E-score” value: 0.128 for the first, 0.198 for the second.

First: ACAGCTAC
Second: CTAATGTA
The “PBM E-score” value of the first is lower: -0.251 for the first, 0.0302 for the second.

First: GAAGAAAC
Second: GGCTAACC
The “PBM E-score” value of the first is higher: 0.122 for the first, -0.248 for the second.

Compared with GCTCGTCA, ATAGACCC is higher in “PBM E-score” value: -0.0995 for the first, -0.0698 for the second.

Going from CAGTCGAC to AGTCTGTA, the “PBM E-score” value falls from 0.0155 to -0.0964.

Compared with GAGCCCGC, ATCGCATC is higher in “PBM E-score” value: -0.0842 for the first, 0.0632 for the second.

First: GGCTCCAA
Second: AGAGTGGC
The “PBM E-score” value of the first is lower: -0.128 for the first, -0.116 for the second.

Going from GATGAAGA to GGACGTAA, the “PBM E-score” value falls from 0.106 to 0.0473.

First: GGGAACTA
Second: CACGGAGC
The “PBM E-score” value of the first is higher: 0.129 for the first, -0.0246 for the second.

Going from CCAAATCA to ACGGATGC, the “PBM E-score” value falls from 0.0372 to -0.1.

Going from TGGATCAA to GCATACCA, the “PBM E-score” value falls from 0.0257 to -0.196.

Compared with ACCCCCGA, ACCCATGA is lower in “PBM E-score” value: 0.0557 for the first, -0.107 for the second.

Going from CCAATAAC to GCGACGTA, the “PBM E-score” value rises from 0.0212 to 0.146.

Compared with ACCGCGAA, CATACCCC is higher in “PBM E-score” value: -0.0549 for the first, 0.205 for the second.

Compared with GTTATCAA, CTTACTGC is higher in “PBM E-score” value: 0.05 for the first, 0.0555 for the second.

Going from ACCGGCTG to CAAGCTTC, the “PBM E-score” value rises from -0.121 to -0.106.

First: ACGGAACA
Second: CGACACGC
The “PBM E-score” value of the first is higher: 0.099 for the first, 0.0301 for the second.

Compared with AATAGCTC, ATCGATCG is higher in “PBM E-score” value: -0.0636 for the first, -0.0157 for the second.

First: ATGATGGA
Second: ATCAGCGA
The “PBM E-score” value of the first is lower: 0.00896 for the first, 0.146 for the second.

Going from CTTATGGA to AACGTGAA, the “PBM E-score” value rises from -0.0137 to 0.132.
